From PMC7308337 come the findings set out here.

Amino acid sequences for entries named in this document (tags omitted). A change or cut given only in a name is not applied to a line headed by its entry.
UniProt Q9Y5Y6: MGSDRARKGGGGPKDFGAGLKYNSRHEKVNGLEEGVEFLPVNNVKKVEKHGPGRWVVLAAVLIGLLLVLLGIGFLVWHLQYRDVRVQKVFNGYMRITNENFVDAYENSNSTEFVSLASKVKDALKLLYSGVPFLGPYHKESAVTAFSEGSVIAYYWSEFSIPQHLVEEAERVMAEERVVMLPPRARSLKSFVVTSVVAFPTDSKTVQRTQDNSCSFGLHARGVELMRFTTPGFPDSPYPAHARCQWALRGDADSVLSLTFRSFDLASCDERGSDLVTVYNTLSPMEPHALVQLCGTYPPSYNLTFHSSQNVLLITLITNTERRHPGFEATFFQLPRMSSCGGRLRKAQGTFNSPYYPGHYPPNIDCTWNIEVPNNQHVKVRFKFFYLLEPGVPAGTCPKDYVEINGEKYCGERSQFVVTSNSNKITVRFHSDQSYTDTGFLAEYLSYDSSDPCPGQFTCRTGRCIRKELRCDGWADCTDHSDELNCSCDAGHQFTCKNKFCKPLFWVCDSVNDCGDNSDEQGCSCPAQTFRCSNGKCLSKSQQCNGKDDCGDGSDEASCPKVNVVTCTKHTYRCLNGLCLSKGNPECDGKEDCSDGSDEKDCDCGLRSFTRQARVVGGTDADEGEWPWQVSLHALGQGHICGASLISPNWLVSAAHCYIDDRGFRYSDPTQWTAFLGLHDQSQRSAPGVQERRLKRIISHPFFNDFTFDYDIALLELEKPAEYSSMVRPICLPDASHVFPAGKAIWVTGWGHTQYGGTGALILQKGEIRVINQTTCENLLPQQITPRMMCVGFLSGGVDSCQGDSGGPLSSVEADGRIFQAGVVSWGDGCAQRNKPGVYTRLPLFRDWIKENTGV

For assay [1], the target named is T1, APLP1 fused at its C terminus to GFP10 or RLucII (BRET2 pair) (human) (UniProt P51693).
T1 sequence: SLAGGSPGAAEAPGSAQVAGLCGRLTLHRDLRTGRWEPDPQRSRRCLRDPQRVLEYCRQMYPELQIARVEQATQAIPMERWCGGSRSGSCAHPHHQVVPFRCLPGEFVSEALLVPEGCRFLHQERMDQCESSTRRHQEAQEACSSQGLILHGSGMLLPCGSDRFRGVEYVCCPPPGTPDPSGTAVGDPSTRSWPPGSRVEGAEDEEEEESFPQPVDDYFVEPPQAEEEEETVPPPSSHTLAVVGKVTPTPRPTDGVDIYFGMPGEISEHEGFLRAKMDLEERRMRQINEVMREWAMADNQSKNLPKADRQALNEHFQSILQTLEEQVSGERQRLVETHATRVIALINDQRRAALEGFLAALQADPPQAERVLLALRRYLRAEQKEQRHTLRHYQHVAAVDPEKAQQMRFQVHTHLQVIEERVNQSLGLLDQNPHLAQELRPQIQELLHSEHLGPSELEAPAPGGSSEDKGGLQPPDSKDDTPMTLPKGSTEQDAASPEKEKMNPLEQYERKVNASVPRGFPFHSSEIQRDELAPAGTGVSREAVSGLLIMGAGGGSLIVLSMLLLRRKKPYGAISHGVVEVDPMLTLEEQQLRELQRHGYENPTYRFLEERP
Put plainly: FRET or BRET; BRET2 saturation in HEK293T cells: fixed RLucII-tagged APLP1 (100 ng DNA), increasing DNA of GFP10-tagged acceptor; 5 μM coelenterazine 400 A.

The target in assay [2] is T2, GFP-tagged APLP1 (amyloid-like protein 1) (human) (UniProt P51693).
T2 sequence: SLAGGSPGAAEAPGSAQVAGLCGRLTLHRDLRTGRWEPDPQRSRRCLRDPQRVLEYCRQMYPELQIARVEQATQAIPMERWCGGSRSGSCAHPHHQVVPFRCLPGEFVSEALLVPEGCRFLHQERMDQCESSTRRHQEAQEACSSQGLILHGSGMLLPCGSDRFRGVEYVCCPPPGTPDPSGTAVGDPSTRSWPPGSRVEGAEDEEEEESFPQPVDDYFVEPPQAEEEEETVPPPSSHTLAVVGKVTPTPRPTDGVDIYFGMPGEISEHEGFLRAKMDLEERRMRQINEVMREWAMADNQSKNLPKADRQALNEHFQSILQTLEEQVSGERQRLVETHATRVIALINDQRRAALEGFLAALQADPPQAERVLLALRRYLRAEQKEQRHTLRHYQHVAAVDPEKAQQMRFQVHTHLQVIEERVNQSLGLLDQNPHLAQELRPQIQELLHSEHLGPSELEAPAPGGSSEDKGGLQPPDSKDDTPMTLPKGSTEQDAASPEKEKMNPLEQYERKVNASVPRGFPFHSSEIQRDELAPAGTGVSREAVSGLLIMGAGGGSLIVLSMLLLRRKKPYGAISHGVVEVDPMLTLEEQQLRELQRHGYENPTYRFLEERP
Kind of assay: co-IP; co-immunoprecipitation of APLP1 with active and inactive (S805A) matriptase, referred to in the text; APLP1 construct and figure not named.

Assay [3] has as its target T1, APLP1 fused at its C terminus to GFP10 or RLucII (BRET2 pair) (human). Put plainly: FRET or BRET; BRET2 in HEK293T cells: fixed APLP1-GFP10 and APLP1-RLucII, co-transfected with increasing DNA of matriptase WT or S805A. For orientation: Bioluminescence resonance energy transfer reports proximity on the nanometre scale.
For assay [4], the target named is T3, GST-APLP1 C-term (intracellular domain of APLP1) (human) (UniProt P51693).
T3 sequence: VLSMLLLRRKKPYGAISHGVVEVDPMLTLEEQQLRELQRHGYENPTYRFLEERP
Kind of assay: pull-down; 10 μg purified GST or GST fusion on glutathione beads, incubated with in vitro translated 35S-labeled matriptase; 20 mM Tris-HCl pH 7.4, 150 mM NaCl, 1% triton x-100, 2 h at 4 °C; autoradiography; only the target purified.

In assay [5] the target is T4, GST-APLP1 N-term (extracellular domain of APLP1) (human) (UniProt P51693).
T4 sequence: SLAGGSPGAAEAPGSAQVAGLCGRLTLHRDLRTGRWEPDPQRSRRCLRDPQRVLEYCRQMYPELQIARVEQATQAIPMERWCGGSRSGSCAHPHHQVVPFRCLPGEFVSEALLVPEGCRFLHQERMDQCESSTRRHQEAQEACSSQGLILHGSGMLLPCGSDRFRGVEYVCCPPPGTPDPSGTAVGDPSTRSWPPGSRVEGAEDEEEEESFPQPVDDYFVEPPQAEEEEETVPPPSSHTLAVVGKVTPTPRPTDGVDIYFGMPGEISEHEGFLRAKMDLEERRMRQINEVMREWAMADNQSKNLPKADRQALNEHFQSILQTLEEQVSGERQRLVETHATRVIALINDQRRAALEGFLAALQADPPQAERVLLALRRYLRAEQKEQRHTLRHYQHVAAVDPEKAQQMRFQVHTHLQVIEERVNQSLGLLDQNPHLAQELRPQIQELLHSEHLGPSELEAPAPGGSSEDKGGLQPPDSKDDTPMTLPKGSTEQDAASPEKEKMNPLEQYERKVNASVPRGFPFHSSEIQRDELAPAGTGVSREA
The assay is described as above.

The target of assay [6] is T5, APLP1 tagged at its C-terminus with Flag (human) (UniProt P51693).
T5 sequence: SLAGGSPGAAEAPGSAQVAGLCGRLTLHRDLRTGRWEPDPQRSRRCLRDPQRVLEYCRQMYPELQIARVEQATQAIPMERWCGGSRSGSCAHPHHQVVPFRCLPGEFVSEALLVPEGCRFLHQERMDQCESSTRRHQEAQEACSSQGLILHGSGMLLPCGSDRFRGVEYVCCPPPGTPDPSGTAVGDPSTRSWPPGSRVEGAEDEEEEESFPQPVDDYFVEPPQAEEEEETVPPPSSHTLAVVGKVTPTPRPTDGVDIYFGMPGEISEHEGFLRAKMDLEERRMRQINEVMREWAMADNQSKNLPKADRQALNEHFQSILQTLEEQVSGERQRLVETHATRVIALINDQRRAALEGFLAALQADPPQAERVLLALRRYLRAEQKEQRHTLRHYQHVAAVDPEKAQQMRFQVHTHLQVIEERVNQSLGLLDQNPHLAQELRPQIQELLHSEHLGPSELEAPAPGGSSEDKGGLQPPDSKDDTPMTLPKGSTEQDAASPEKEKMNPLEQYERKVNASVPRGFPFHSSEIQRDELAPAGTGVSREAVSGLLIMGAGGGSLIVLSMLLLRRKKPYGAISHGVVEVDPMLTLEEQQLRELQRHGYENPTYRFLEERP
Kind of assay: co-IP; APLP1 tagged at its C-terminus with Flag and matriptase, in cellulo; Supplementary Fig. S2.

Assay [7] addresses T2, GFP-tagged APLP1 (amyloid-like protein 1) (human). Put plainly: co-IP; HEK293T cells co-transfected; lysis in 50 mM Tris pH 7.4, 150 mM NaCl, 1% triton x-100; GFP-Trap beads overnight at 4 °C; immunoblot with anti-matriptase. (In general: A western blot detects proteins with antibodies after separation by electrophoresis.)

These are yes or no findings as the source states them, for the method shown. In cells and extracts the contact can be indirect. Some entries that bind do so weakly or less than the wild type. Sequences can lack the tags named with a protein.

As to “angiotensin II type 1 receptor tagged with GFP10 (from UniProt P30556 1-359)”, the binding result in assay [1] is on record as “no binding”.

With “catalytically inactive matriptase S805A (from UniProt Q9Y5Y6 1-855) (enzyme)”, the binding result in assay [2] and in assay [3] was “binds” in each case.

“in vitro translated 35S-labeled matriptase (from UniProt Q9Y5Y6 1-855) (enzyme)”: the values for the binding entry in assay [4] and in assay [5] were “no binding” and “binds”, respectively.

For the molecule “matriptase, wild type (from UniProt Q9Y5Y6 1-855) (enzyme)”, the binding entry in assay [3], in assay [6] and in assay [7] was “binds” each time.

B1: APLP1 fused at its C terminus to GFP10 or RLucII (BRET2 pair) (protein, UniProt P51693 39-650)
chain: SLAGGSPGAAEAPGSAQVAGLCGRLTLHRDLRTGRWEPDPQRSRRCLRDPQRVLEYCRQMYPELQIARVEQATQAIPMERWCGGSRSGSCAHPHHQVVPFRCLPGEFVSEALLVPEGCRFLHQERMDQCESSTRRHQEAQEACSSQGLILHGSGMLLPCGSDRFRGVEYVCCPPPGTPDPSGTAVGDPSTRSWPPGSRVEGAEDEEEEESFPQPVDDYFVEPPQAEEEEETVPPPSSHTLAVVGKVTPTPRPTDGVDIYFGMPGEISEHEGFLRAKMDLEERRMRQINEVMREWAMADNQSKNLPKADRQALNEHFQSILQTLEEQVSGERQRLVETHATRVIALINDQRRAALEGFLAALQADPPQAERVLLALRRYLRAEQKEQRHTLRHYQHVAAVDPEKAQQMRFQVHTHLQVIEERVNQSLGLLDQNPHLAQELRPQIQELLHSEHLGPSELEAPAPGGSSEDKGGLQPPDSKDDTPMTLPKGSTEQDAASPEKEKMNPLEQYERKVNASVPRGFPFHSSEIQRDELAPAGTGVSREAVSGLLIMGAGGGSLIVLSMLLLRRKKPYGAISHGVVEVDPMLTLEEQQLRELQRHGYENPTYRFLEERP
B1: the binding entry in assay [1] and in assay [3] was “binds” in each case.
